# In PubChem BioAssay AID686970 (National Center for Advancing Translational Sciences (NCATS), 2013):
# About 6,000 (1.7%) of roughly 360,000 compounds were called active. The shares of active, inactive and inconclusive entries below differ from those in the screen. Calls come from the whole dose curve; as a rule, active = well fitted cell-killing curve with a large enough effect; inconclusive = small, poorly fitted or top-dose-only effect, or effect the other way; inactive = flat fitted curve, though single readings scatter. No potency is given beside an inconclusive call; the fits are too rough.
# Test: qHTS for induction of synthetic lethality in tumor cells producing 2HG: qHTS for the HT-1080-NT fibrosarcoma cell line;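 note: NT is the 2HG producing partner of a matched IDH1 knockdown line; nearly all actives have a fitted effect of over 55% in size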;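 for activity, negative = less viability: 0% = DMSO-treated cells and -100% = media-only wells without cells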
# Details: HT-1080-NT fibrosarcoma viability, CellTiter-Glo ATP luminescence, 48 h; activity, negative = less viability: at 46.1 µM (top of the series)
# Method in brief: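 Fibrosarcoma NT cells, 750 per well in 5% FBS RPMI, were exposed to compound for 48 hours. Viability: CellTiter-Glo luminescence.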
# Potency is the fitted concentration of half-maximal effect; tags give direction and shape of the fitted curve.
SMILES,Potency,"activity, negative = less viability"
CC(=O)N1N=C2C3CCN(CC3)C2C1c1ccccc1 (configuration not stated),"inconclusive [rising, partial curve, poor fit]",
CCC(=O)N1N=C(c2c(O)n(C)c(=O)n(C)c2=O)CC1c1ccccc1 (configuration not stated),"inconclusive [cytotoxic, full curve]",
OC(CNCCc1c[nH]c2ccccc12)c1ccccc1 (configuration not stated),,inactive: -12.1%
COc1ccc(OCC(=O)N2CCN(Cc3ccc4c(c3)OCO4)CC2)cc1,,inactive: -3.91%
O=C(CCc1ccc(O)cc1)N1C[C@H]2C[C@@H](C1)c1cccc(=O)n1C2,,inactive: 5.41%
CC(=O)OC1CC2(O)C3CCC4CC(O)CCC4(C)C3CCC2(C)C1C1=CC(=O)OC1 (configuration not stated),active: 1.3 µM,
O=C(CC1CCCCC1)c1c(O)c2ccccc2oc1=O,active: 7.94 µM,
CCOP(=O)(OCC)C(Nc1cccc(C(F)(F)F)c1)c1ccc(C)cc1 (configuration not stated),"inconclusive [cytotoxic, partial curve]",
C[C@H](CO)N1C[C@H](C)[C@@H](CN(C)Cc2ccc(-c3ccccc3)cc2)Oc2c(NC(=O)c3ccncc3)cccc2C1=O,"inconclusive [cytotoxic, partial curve]",
CCOC(=O)[C@]12Cc3c(cc(OC)c(OC)c3OC)[C@H]1N(C)C(=O)c1cc(OC)ccc12,active: 14.6 µM,
CC(=O)c1cccc(-c2ccnc3c2CC(C(=O)NCCc2ccccc2)O3)c1 (configuration not stated),"inconclusive [cytotoxic, full curve]",
CCCCCn1c(=O)c(C(=O)Nc2ccccc2)c(O)c2ccccc21,,inactive: 6.5%
COc1ccc(CN2CCCC(C(=O)c3ccc(Cl)cc3)C2)c(OC)c1 (configuration not stated),"inconclusive [cytotoxic, single point]",
CN1C(=O)/C(=C/c2cccn2-c2ccc3ccccc3c2)C(=O)NC1=S,"inconclusive [cytotoxic, single point]",
O=c1[nH]c2ccccc2n1C1CCN(C(c2cc3ccccc3o2)c2nnnn2-c2ccc3c(c2)OCCO3)CC1 (configuration not stated),"inconclusive [cytotoxic, partial curve, poor fit]",
Cc1[nH]nc2ccc(-c3cncc(OC[C@@H](N)Cc4c[nH]c5ccccc45)c3)cc12,active: 18.4 µM,
C[C@]12CC[C@@H]3c4ccc(O)c(O)c4CC[C@H]3[C@@H]1CC[C@@H]2O,"inconclusive [cytotoxic, single point]",
Clc1ccc(C(Cn2ccnc2)OCc2csc3c(Cl)cccc23)c(Cl)c1 (configuration not stated),"inconclusive [cytotoxic, single point]",
COc1cc(C(=O)OCc2cc(=O)c(O)co2)ccc1OC(F)F,"inconclusive [cytotoxic, partial curve]",
COC12CCC3(CC1C(C)(O)C(C)(C)C)[C@H]1Cc4ccc(O)c5c4[C@@]3(CCN1CC1CC1)C2O5 (some centres not stated),"inconclusive [cytotoxic, single point]",
CC(c1ccccc1F)n1cc(C(=O)Nc2ccc3nc[nH]c3c2)nn1 (configuration not stated),,inactive: -9.64%
O=C1NC(=O)N(Cc2ccco2)C(=O)/C1=C/C=C/c1ccco1,active: 23.1 µM,
CC/C=C/CC(=O)N[C@@H](c1ccccc1)[C@@H](O)C(=O)O[C@H]1C[C@@]2(O)[C@@H](OC(=O)c3ccccc3)C3[C@](C)(C(=O)[C@H](OC(C)=O)C(=C1C)C2(C)C)[C@@H](O)C[C@H]1OC[C@@]31OC(C)=O (some centres not stated),active: 0.0411 µM,

SMILES,Potency,"activity, negative = less viability"
COC(=O)C1=C(c2ccc(OC)c(OC)c2)C[C@@H]2CC[C@H]1N2C(=O)N1CCOCC1,"inconclusive [rising, single point]",
CC[n+]1c(-c2ccccc2)c2cc(N)ccc2c2ccc(N)cc21,"inconclusive [cytotoxic, partial curve]",
CNCCCN1c2ccccc2CCc2ccccc21,"inconclusive [cytotoxic, single point]",
COC(=O)C1=C(c2ccc(-c3ccccc3)c(F)c2)C[C@@H]2CC[C@H]1N2C(=O)NCC1CC1,"inconclusive [cytotoxic, single point]",
N#Cc1ncc(N=Cc2ccc(N(CCCl)CCCl)cc2)s1,"inconclusive [cytotoxic, partial curve]",
CCN(CCCl)c1cc(CN(C)C)cc(NC(=O)c2ccc(C(=O)Nc3cc(CN(C)C)cc(N(CC)CCCl)c3)cc2)c1,active: 7.31 µM,
CCOP(=O)(Cc1ccc(C#N)o1)OCC,,inactive: 15.8%
CC(N)C(=O)OC(C)(C)Cc1ccc(Cl)cc1 (configuration not stated),"inconclusive [cytotoxic, single point]",
Oc1ccc(O)c2c1C1(Cl)C(Cl)=C(Cl)C2(Cl)C1(Cl)Cl,"inconclusive [cytotoxic, single point]",
c1ccc(-c2ccc(-c3n(-c4ccccn4)c4ccccc4[n+]3-c3ccccn3)cc2)cc1,"inconclusive [cytotoxic, single point]",
C[C@H]1O[C@@H](OC2CC[C@]3(C=O)[C@H]4CC[C@]5(C)[C@@H](C6=CC(=O)OC6)CC[C@]5(O)[C@@H]4CC[C@]3(O)C2)CC2OC(C)(C)OC21 (some centres not stated),active: 0.184 µM,
O=c1[nH]cnc2[nH]ncc12,"inconclusive [rising, partial curve]",
COC(=O)C1=C(c2ccc(OC)c(OC)c2)C[C@@H]2CC[C@H]1N2C(=O)N1CCc2cc(OC)c(OC)cc2C1,,inactive: 5.94%
C=CCn1c(O)c(C(C)=NCc2cc(OC)cc(OC)c2)c(=O)[nH]c1=O,active: 3.66 µM,
O=C1/C(=C/c2cccnc2)N2CCC1CC2,"inconclusive [rising, single point]",
O=C1NC(=O)C(=Cc2ccc(-c3ccc(F)cc3O)o2)C(=O)N1,"inconclusive [cytotoxic, single point]",
CCN(CC)c1ccc(N=Cc2c(O)n(CCc3ccc(OC)c(OC)c3)c(=O)[nH]c2=O)cc1,,inactive: 1.22%
CCN(CC)C1=NC(=[N+](CC)CC)c2ccccc21,"inconclusive [cytotoxic, single point]",
COC(=O)C1=C(c2cccc(OCc3ccccc3)c2)C[C@@H]2CC[C@H]1N2C(=O)NC1CCN(Cc2ccccc2)CC1,active: 23.1 µM,
COc1cc(CNCCc2c[nH]c3ccccc23)cc(OC)c1,"inconclusive [cytotoxic, single point]",
Nc1ncnc2c1ccn2[C@@H]1O[C@H](CO)[C@@H](O)[C@H]1O,active: 0.651 µM,
NC(Cc1ccc(N(CCCl)CCCl)cc1)C(=O)O (configuration not stated),"inconclusive [cytotoxic, single point]",
COc1ccc(CCn2c(O)c(C=NCc3ccc4c(c3)OCO4)c(=O)[nH]c2=O)cc1OC,,inconclusive: -21% [cytotoxic]

SMILES,Potency,"activity, negative = less viability"
COC12C(COC(N)=O)C3=C(C(=O)C(C)=C(N)C3=O)N1CC1C2N1C (configuration not stated),"inconclusive [cytotoxic, single point]",
CCOC(=O)CC(NC(=O)C(Cc1ccc(N(CCCl)CCCl)cc1)NC(C)=O)C(=O)OCC (configuration not stated),"inconclusive [cytotoxic, partial curve]",
CCCCn1c(=O)c(C(=O)Nc2cnccn2)c(O)c2ccccc21,,inactive: -18.7%
CCOC(=O)c1cnc(SCc2ccc(Cl)c(Cl)c2)nc1N1CC1,"inconclusive [cytotoxic, single point]",
CC(=O)OCC[N+](C)(C)C,"inconclusive [rising, single point]",
CN(C)c1ccccc1,,inactive: 10.8%
CC(C)NC1C2CCC(CC2)C1(O)c1ccc(Cl)c(Cl)c1 (configuration not stated),,inactive: -24.5%
CCc1ccc2nc(N3CCC(C(=O)N4CCC5(CC4)OCCO5)CC3)sc2c1,"inconclusive [cytotoxic, single point]",
COC(=O)c1ccc(C(=O)OC)c(NC(=O)Oc2ccccc2)c1,"inconclusive [rising, full curve]",
CC[C@@H](C)[C@H](C(CC(=O)N1CCCC1[C@@H](OC)[C@H](C)C(=O)N[C@H](Cc1ccccc1)c1nccs1)OC)N(C)C(=O)[C@H](NC(=O)[C@@H](C(C)C)N(C)C)C(C)C (some centres not stated),active: 0.259 µM,
Nc1c(C(=O)OCC2CCCO2)c2nc3ccccc3nc2n1Cc1cccs1 (configuration not stated),"inconclusive [cytotoxic, partial curve]",
O=c1cccc2n1CC1CC2CN(S(=O)(=O)c2ccccc2)C1 (configuration not stated),,inactive: 2.02%
CCC(C)N1C(=O)/C(=C\c2cnc(N(C)C)nc2)C(=O)NC1=S (configuration not stated),"inconclusive [cytotoxic, single point]",
COc1cc(/C=C/C(=O)c2c(O)n(CCc3ccccc3)c(=O)[nH]c2=O)ccc1O,"inconclusive [cytotoxic, partial curve]",
Cc1[nH]c2ccc(OC(F)(F)F)cc2c1CCNCc1ccc(Cl)cc1,"inconclusive [cytotoxic, single point]",
O=C(CCl)Nc1sccc1C(=O)c1ccccc1,active: 10.3 µM,
CCOc1cc2c(cc1OCC)-n1cccc1C(c1c(O)cccc1OC)NC2 (configuration not stated),active: 20.6 µM,
CCOC(=O)[C@]12Cc3ccc(C)cc3[C@H]1N(C1CCCCC1)C(=O)c1cc(OC)ccc12,active: 4.11 µM,
C[C@@H]1C[C@@H]2O[C@H]2/C=C\C=C\C(=O)Cc2c(Cl)c(O)cc(O)c2C(=O)O1,active: 8.2 µM,
CCCCCCOc1ccc(CN2CCN(CC)CC2)cc1,"inconclusive [cytotoxic, single point]",
CCOC(=O)[C@]12Cc3cc(Cl)ccc3[C@H]1N(C(C)C)C(=O)c1ccccc12,active: 4.61 µM,
